Test results as given in PubChem BioAssay AID624417 (National Center for Advancing Translational Sciences (NCATS), 2012).
About 6,400 (1.6%) of roughly 410,000 compounds were called active. Inconclusive results, whose numbers are uncertain, are shown with a selection of clear calls. The call rests on the fitted dose curve; in most records, active means well fitted inhibition curve with a large enough effect; inconclusive means small, poorly fitted or top-dose-only effect; inactive means no such curve, though single readings can be large or run the other way. Where the call is inconclusive, the potency comes from a doubtful curve fit.

These compounds were tested against Glucagon-like peptide 1 receptor (Homo sapiens) (UniProt P43220) (assay: qHTS of GLP-1 Receptor Inverse Agonists (Inhibition Mode)). Conditions: HEK293 GLP-1R CRE-luciferase, luminescence, 24 h, GLP-1R form is constitutively active; series mostly up to 38.3 µM.
UniProt P43220, sequence (P43220 whole entry, looked up): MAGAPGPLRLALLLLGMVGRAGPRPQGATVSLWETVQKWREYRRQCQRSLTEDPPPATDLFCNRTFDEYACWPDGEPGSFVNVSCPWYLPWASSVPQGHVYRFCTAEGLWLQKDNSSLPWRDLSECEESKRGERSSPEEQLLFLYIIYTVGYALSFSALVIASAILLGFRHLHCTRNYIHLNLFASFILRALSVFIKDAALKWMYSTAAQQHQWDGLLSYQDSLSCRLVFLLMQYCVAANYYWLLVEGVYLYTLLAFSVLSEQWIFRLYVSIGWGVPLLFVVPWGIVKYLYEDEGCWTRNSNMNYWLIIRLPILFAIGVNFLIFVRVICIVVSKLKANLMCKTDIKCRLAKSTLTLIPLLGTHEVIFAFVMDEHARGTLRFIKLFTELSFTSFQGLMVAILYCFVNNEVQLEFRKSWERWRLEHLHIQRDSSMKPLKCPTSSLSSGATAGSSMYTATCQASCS
Method in brief: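 HEK293 cells stably co-expressing a cAMP-responsive luciferase reporter and constitutively active GLP-1R were seeded, incubated 12 h, then exposed to compounds for 24 h at 37 C. Luminescence was read 12 min after detection reagent; inverse agonists lower signal.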
Further: nearly all actives have a fitted effect of over 55% in size.
Potency means the concentration at half of the fitted maximal effect; tags describe the fitted curve by direction and shape.

Potency, inconclusive:
Cc1ccc(OCCn2c(=O)cnc3ccccc32)cc1 28.2 µM [inhibitor, single point]
COc1ccc(N(CC(=O)Nc2ccc3c(c2)OCCO3)S(=O)(=O)c2cccc(C)c2)cc1 28.2 µM [inhibitor, single point]
CC(C)n1c(=S)[nH]c2cc(C(F)(F)F)ccc21 7.94 µM [inhibitor, partial curve, poor fit]
CCCCN(C)CCN1C(=O)C2C(C(=O)Nc3cccc(OC)c3)C3C=CC2(O3)C1C(=O)NC1CCCCC1C (stereo not given) 12.6 µM [inhibitor, partial curve, poor fit]
Cc1ccc(C(=O)N2CC(C)SC2=Nc2cccc(S(=O)(=O)N(C)C)c2)cc1 (stereo not given) 12.6 µM [inhibitor, single point]
C/C(=N\N=C(/N)SC1CC(=O)N(c2ccc(Cl)cc2)C1=O)c1cccs1 (stereo not given) 22.4 µM [inhibitor, single point]
O=C(NC(c1ccc(Cl)cc1)c1ccsc1)C1CCN(Cc2cccc(Cl)c2)CC1 (stereo not given) 10 µM [inhibitor, partial curve, poor fit]
O=[N+]([O-])c1ccc(Sc2ncccn2)c([N+](=O)[O-])c1 8.91 µM [inhibitor, partial curve, poor fit]
COc1cccc(-c2ccc(NC(=O)C3CCCN(Cc4ccccn4)C3)cc2)c1 (stereo not given) 28.2 µM [inhibitor, single point]
COc1ccc(C(=O)NNC(=S)NC(=O)c2ccc(F)cc2)cc1Br 11.2 µM [inhibitor, single point]
CCN1CCC(N(Cc2ccc(F)cc2)C(=O)Nc2cccc(C(F)(F)F)c2)CC1 12.6 µM [inhibitor, single point]
CCc1ccccc1Nc1nn2c(=O)c3ccc(C(=O)Nc4ccc(OC)cc4)cc3nc2s1 3.16 µM [inhibitor, full curve, poor fit]
Cc1nc2c(c3c1[nH]c1ccccc13)C(=O)CC(C)(C)C2 8.91 µM [inhibitor, partial curve]
Cc1noc(C)c1S(=O)(=O)N1CCC(Cc2ccccc2)CC1 28.2 µM [inhibitor, single point]
CCOC(=O)C1=C(COc2ccccc2)NC(=O)NC1c1ccc(Br)cc1 (stereo not given) 25.1 µM [inhibitor, single point]
CC(C)[C@H](NS(=O)(=O)c1ccccc1)C(=O)OCC(=O)Nc1ccccc1Sc1ccccc1 11.2 µM [inhibitor, partial curve, poor fit]
CCN(CC)CCCn1c2c(c(SCC(=O)Nc3ccccc3Cl)nc1=O)CCC2 20 µM [inhibitor, single point]
CN(C)CCN(C(=O)C1CCCCC1)c1nc2cc3c(cc2s1)OCO3 28.2 µM [inhibitor, partial curve, poor fit]
COc1ccc(C2C3=C(N=C4SCC(=O)N42)c2ccccc2CC3)cc1 (stereo not given) 10 µM [inhibitor, partial curve]
O=C(O)C1=CC[C@@H](c2ccc(Cl)cc2)N(S(=O)(=O)c2ccc(Cl)cc2)[C@H]1c1ccccc1 11.2 µM [inhibitor, partial curve, poor fit]
O=C(Nc1ccccc1Cl)c1cc(C2CCCN(C(=O)c3cccs3)C2)on1 (stereo not given) 28.2 µM [inhibitor, single point]
O=C(CCNS(=O)(=O)c1ccc(Br)cc1)Nc1cccc(F)c1 11.2 µM [inhibitor, partial curve, poor fit]
Cc1cc(C)cc(NC(=S)/C(=C(\[O-])c2ccc(Cl)s2)[n+]2cccc(C)c2)c1 4.47 µM [inhibitor, partial curve, poor fit]
CC12CCC(c3c(C(=O)Nc4nccs4)nn(-c4ccccc4)c31)C2(C)C (stereo not given) 2.51 µM [inhibitor, partial curve, poor fit]
Cc1ccc([C@H]2C(C(=O)O)=CC[C@@H](c3ccc(C)cc3)N2S(=O)(=O)c2ccccc2C)cc1 8.91 µM [inhibitor, partial curve, poor fit]
O=C(OCc1ccccc1)N1CCC2CC1c1ccc(-c3cccc(F)c3)cc12 (stereo not given) 22.4 µM [inhibitor, partial curve, poor fit]
COc1cc2c(C(=O)N3CCOCC3)c(CSc3ccccc3)n(C)c2cc1Br 22.4 µM [inhibitor, partial curve, poor fit]
CN(CC(=O)Nc1ccc(Cl)c(C(F)(F)F)c1)C(=O)CCN1C(=O)C2CCCCC2C1=O (stereo not given) 31.6 µM [inhibitor, partial curve, poor fit]
CC(C)Cc1ccc(CN2CCCC(NC(=O)c3cccc(-n4cnnc4)c3)C2)cc1 (stereo not given) 3.98 µM [inhibitor, partial curve, poor fit]
O=C(NC12CC3CC(CC(C3)C1)C2)c1ccc(COc2ccc(Cl)cc2[N+](=O)[O-])o1 14.1 µM [inhibitor, single point]
N#Cc1ccc(NC(=O)Nc2ccc(Oc3ccc(NC(=O)Nc4ccc(C#N)cc4)cc3)cc2)cc1 2 µM [inhibitor, full curve, poor fit]
CCOc1ccc(-c2ncncc2-c2ccccc2OC)c(O)c1 12.6 µM [inhibitor, single point]
CCOC(=O)C1CCCN(S(=O)(=O)CCNC(=O)c2cccc(OC)c2)C1 (stereo not given) 1.12 µM [inhibitor, full curve, poor fit]
CCOc1ccc(-n2c(SCc3ccc([N+](=O)[O-])cc3)nnc2-c2ccccc2)cc1 10 µM [inhibitor, partial curve, poor fit]
CCCN(CC(=O)Nc1ccccc1OC)C(C)C(=O)NC(C)CCc1ccccc1 (stereo not given) 12.6 µM [inhibitor, partial curve, poor fit]
COc1ccc(C(=O)N(NC(=O)Oc2ccccc2)C(C)(C)C)cc1 1.78 µM [inhibitor, full curve, poor fit]
Cc1cc(C(=O)COc2ccc(Br)cc2F)c(C)n1C1CC1 28.2 µM [inhibitor, single point]
N#Cc1ccccc1S(=O)(=O)N1CCC(C(=O)NCc2ccccc2CN2CCCC2)CC1 28.2 µM [inhibitor, single point]
Oc1ccc(Cl)cc1CNCc1ccc(C(F)(F)F)cc1 28.2 µM [inhibitor, single point]
CC(=C/c1ccc(C(C)C)cc1)/C=N/NC(=O)CSc1ccccn1 25.1 µM [inhibitor, single point]
O=C(CCCN1C(=O)/C(=C/c2ccco2)SC1=S)Nc1ccccc1 31.6 µM [inhibitor, single point]
COc1cccc(-c2cnc(C(O)c3ccc(Cl)cc3)[nH]2)c1 (stereo not given) 28.2 µM [inhibitor, single point]
Cc1ccnc(NC(=O)CCCc2c[nH]c3ccccc23)c1 10 µM [inhibitor, partial curve, poor fit]
CN=c1scc(-c2ccccc2F)n1/N=C(\C)c1cccnc1 10 µM [inhibitor, partial curve, poor fit]
Cc1ccc(S(=O)(=O)N2CCc3cc(C(=O)NCCc4ccccc4)ccc32)cc1 10 µM [inhibitor, single point]
Oc1ccccc1/C=N/NC(=S)NC1CC2CCC1C2 (stereo not given) 10 µM [inhibitor, single point]
Cc1cc2nc(C)n(CCCNC(=O)Nc3ccc(C#N)cc3)c2cc1C 11.2 µM [inhibitor, partial curve, poor fit]
O=S(=O)(NC1CCCCC1Nc1ccccc1)c1ccccc1 (stereo not given) 12.6 µM [inhibitor, single point]
O=C(COc1ccc(Cl)cc1Cl)N1CCCN(C(=O)COc2ccc(Cl)cc2Cl)CC1 1.26 µM [inhibitor, partial curve, poor fit]

Potency, inactive:
Cc1cccc(-c2noc(-c3ccccc3C(=O)NCC3CCCO3)n2)c1 (stereo not given)
Cc1cccn2c(=O)c(C=Nc3ccc(Cl)cc3)c(NCCO)nc12
CCN(CC(O)COCc1ccc(Cl)cc1)C1CCCCC1 (stereo not given)
Cc1noc(NS(=O)(=O)c2ccc(NC(=O)c3ccc(Br)cc3)cc2)c1C
CC(C)CCNC(=O)c1cc2c(=O)n3ccccc3nc2s1
CC(OC(=O)c1ccccc1Br)C(=O)Nc1nc(-c2cccc([N+](=O)[O-])c2)cs1 (stereo not given)
CCS(=O)(=O)N1CCC2(CC1)OC(=O)C(C)=C2C(=O)NCc1ccccc1C
Cc1c(NS(=O)(=O)c2cccc(C(=O)NCc3ccncc3)c2)c(=O)n(-c2ccccc2)n1C
COc1ccc(C(CC(=O)c2ccccc2)S(=O)(=O)c2ccc(C)cc2)cc1 (stereo not given)
Cc1ccccc1NC(=O)CSc1cn(CC(=O)N2CCCC2)c2ccccc12

Potency, active:
CCCCOc1ccc(C(O)C(CN2CCOCC2)c2ccccc2)cc1 (stereo not given) 10 µM
